From PubChem BioAssay AID1460 (National Center for Advancing Translational Sciences (NCATS), 2008)
The whole screen tested about 270,000 compounds, of which about 5,800 (2.1%) were called active. This list was built around the results that the source calls inconclusive (neither active nor inactive); the mix of calls is not that of the screen. Calls come from the whole dose curve; as a rule, active = well fitted inhibition curve with a large enough effect; inconclusive = small, poorly fitted or top-dose-only effect; inactive = flat fitted curve, though single readings scatter. Potencies of inconclusive entries are doubtful fits and often do not repeat.

Biological target: Microtubule-associated protein tau (Homo sapiens) (UniProt P10636)
Experiment: qHTS for Inhibitors of Tau Fibril Formation, Thioflavin T Binding; note: nearly all actives have a fitted effect of over 55% in size
Settings: recombinant tau K18 P301L, heparin-induced fibrillization, ThT fluorescence; series mostly up to 57.4 µM
Procedure, shortened: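 Using a mix of unlabeled (15 uM) and Alexa 594-labeled (0.24 uM) tau K18 P301L, heparin-triggered fibrillization over 6 hr at 37 C was scored by ThT fluorescence.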
Potency is the fitted concentration of half-maximal effect; tags give direction and shape of the fitted curve.

Chain of UniProt P10636 (P10636 whole entry, looked up): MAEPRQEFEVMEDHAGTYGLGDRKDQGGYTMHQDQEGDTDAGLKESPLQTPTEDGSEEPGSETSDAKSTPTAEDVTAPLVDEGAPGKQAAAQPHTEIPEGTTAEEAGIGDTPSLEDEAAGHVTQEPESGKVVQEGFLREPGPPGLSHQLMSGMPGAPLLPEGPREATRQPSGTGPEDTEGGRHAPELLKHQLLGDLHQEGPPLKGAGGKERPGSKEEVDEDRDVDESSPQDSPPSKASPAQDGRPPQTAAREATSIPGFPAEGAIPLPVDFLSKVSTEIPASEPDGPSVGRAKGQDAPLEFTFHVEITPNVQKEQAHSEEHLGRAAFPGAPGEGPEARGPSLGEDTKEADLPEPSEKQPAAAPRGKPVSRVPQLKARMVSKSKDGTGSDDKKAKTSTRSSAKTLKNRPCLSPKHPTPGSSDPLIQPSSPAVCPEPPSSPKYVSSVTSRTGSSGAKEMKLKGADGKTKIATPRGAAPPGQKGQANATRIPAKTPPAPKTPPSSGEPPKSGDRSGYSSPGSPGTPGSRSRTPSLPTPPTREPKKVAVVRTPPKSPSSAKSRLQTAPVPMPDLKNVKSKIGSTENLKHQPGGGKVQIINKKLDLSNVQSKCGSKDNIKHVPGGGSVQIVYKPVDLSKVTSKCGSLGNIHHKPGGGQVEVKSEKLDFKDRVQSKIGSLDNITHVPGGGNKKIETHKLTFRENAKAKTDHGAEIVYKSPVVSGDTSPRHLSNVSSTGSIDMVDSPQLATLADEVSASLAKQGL

| Compound | Potency |
| --- | --- |
| COc1ccc(N/N=C(\C#N)C(=N)N2CCCCC2)cc1 | inconclusive: 12.6 µM [inhibitor, partial curve] |
| O=[N+]([O-])c1cc(C(F)(F)F)ccc1NCCc1c[nH]c2ccccc12 | active: 12.6 µM |
| Cc1ccc2[nH]cc(CCNC(=O)c3ccc([N+](=O)[O-])cc3)c2c1 | inconclusive: 28.2 µM [inhibitor, partial curve] |
| CCn1c(SCc2c(F)cccc2Cl)nc(=O)c2c(C(=O)OC)cc(C3CC3)nc21 | inconclusive: 10 µM [inhibitor, partial curve] |
| O=C(CSc1nnc(-c2ccc(Cl)cc2)o1)c1ccc([N+](=O)[O-])cc1 | inconclusive: 0.562 µM [inhibitor, full curve] |
| CCc1ccc(C(=O)c2cn(CC(=O)Nc3cccc(OC)c3)c3cc4c(cc3c2=O)OCO4)cc1 | inactive |
| COc1cc(/C=C2/SC(=Nc3ccc(O)cc3)NC2=O)cc(OC)c1O | inconclusive: 2.82 µM [inhibitor, full curve] |
| COc1ccc(C)c2sc(N3CCN(C(=O)c4cccc(F)c4)CC3)nc12 | inconclusive: 25.1 µM [inhibitor, single point] |
| CCc1nn2c(=O)cc(COC(=O)c3ccccc3)nc2s1 | inconclusive: 44.7 µM [inhibitor, single point] |
| COc1ccc(C(=O)c2c[nH]cc2-c2ccccc2)cc1 | inactive |
| COC(=O)c1cccc(S(=O)(=O)N(Cc2ccco2)Cc2cc3cc(OC)ccc3[nH]c2=O)c1 | inconclusive: 20 µM [inhibitor, partial curve] |
| Cc1cc(C(=O)N/N=C/C=C/c2cccc([N+](=O)[O-])c2)n[nH]1 | inconclusive: 14.1 µM [inhibitor, partial curve] |
| CCn1c(SCC(=O)N/N=C/c2c[nH]c3ccccc23)nnc1-c1ccc(C)cc1 | inconclusive: 10 µM [inhibitor, partial curve, poor fit] |
| COc1ccc(-c2cc(C(=O)NC3=NCCS3)c3ccccc3n2)cc1OC | inactive |
| O=C(NC1CCCCCC1)C1CCN(c2nc3ccccc3o2)CC1 | inconclusive: 14.1 µM [inhibitor, partial curve, poor fit] |
| COC(=O)c1cc(COc2ccc3c(c2)oc(=O)c2ccccc23)c(C)o1 | inconclusive: 1.41 µM [inhibitor, full curve] |
| COC(=O)c1cccc(NC2=NS(=O)(=O)c3ccccc32)c1 | inactive |
| CC1CCc2sc3nc(NCc4ccco4)n4ncnc4c3c2C1 (stereo unspecified) | inconclusive: 15.8 µM [inhibitor, partial curve, poor fit] |
| CCc1c(C)sc(NC(=O)C2CCCCC2C(=O)O)c1C(N)=O (stereo unspecified) | inconclusive: 25.1 µM [inhibitor, partial curve] |
| O=C(N=Nc1c(O)[nH]c2ccc(Br)cc12)c1ccccc1-n1cccc1 | inconclusive: 17.8 µM [inhibitor, partial curve] |
| Cc1ccccc1OCC(O)CN1CCN(c2ccc(Cl)cc2)CC1 (stereo unspecified) | inconclusive: 11.2 µM [inhibitor, partial curve] |
| CCC(C(=O)NCc1ccccc1OC)n1nc(C)n2c(cc3occc32)c1=O (stereo unspecified) | inactive |
| O=C(CC1N=C2c3ccccc3N=C(SCc3ccccc3Cl)N2C1=O)NCCc1ccccc1 (stereo unspecified) | inactive |
| O=S(=O)(/N=C(\c1ccccc1F)N1CCCCC1)c1ccccc1 | inactive |

| Compound | Potency |
| --- | --- |
| Cc1cc(Nc2cccc(Cl)c2)nc2ccc(NC(=O)c3cncc(Br)c3)cc12 | inconclusive: 8.91 µM [inhibitor, partial curve] |
| CCOC(=O)c1c(C2COc3ccccc3O2)csc1NC(=O)c1ccco1 (stereo unspecified) | inconclusive: 31.6 µM [inhibitor, single point] |
| CCCCn1c(=O)n(-c2cc(OC)ccc2OC)c(=O)c2c3c(sc21)CN(C(C)=O)CC3 | inactive |
| O=C(CCC(=O)OCc1ccc([N+](=O)[O-])cc1)Nc1ccc(F)cc1 | inactive |
| COC(=O)c1sc2nc(CN3CCN(c4cccc(C(F)(F)F)c4)CC3)[nH]c(=O)c2c1C | inconclusive: 39.8 µM [inhibitor, single point] |
| O=S(=O)(c1ccccc1)N1N=C(c2ccccc2)CC1c1ccccc1 (stereo unspecified) | inactive |
| Cc1ccc(C2Nc3ccc4ccccc4c3C3=C2C(=O)CC(C)(C)C3)o1 (stereo unspecified) | inconclusive: 7.94 µM [inhibitor, partial curve] |
| CCOc1ccc(NC(=O)N2CCN(c3nnc(C)c4c(C)n(-c5ccccc5)nc34)CC2)cc1 | inactive |
| CN(C)/N=N/c1nc[nH]c1C(N)=O | inactive |
| O=C(CSC1CN(C(c2ccccc2)c2ccccc2)C1)N/N=C/c1ccccc1 | inactive |
| CCn1c2ccccc2c2nnc(SCC(=O)Nc3ccc4c(c3)OCO4)nc21 | inconclusive: 14.1 µM [inhibitor, partial curve, poor fit] |
| Cc1cc(C)c(C#N)c(=N)o1 | inconclusive: 35.5 µM [inhibitor, partial curve] |
| Cc1ccc(NC(=O)Nc2ccc3c(c2)nc(C)n3C)cc1 | inactive |
| Nc1nnc(CCS(=O)(=O)c2cc(Cl)ccc2Cl)s1 | inactive |
| CC(=O)Oc1cc(OC(C)=O)c2c(=O)c(-c3ccc4c(c3)OCCCO4)c(C)oc2c1 | inconclusive: 14.1 µM [inhibitor, partial curve] |
| Cc1ccc(C)c(N2CCN(C(=S)Nc3ccc4nc(N5CCOCC5)cc(C)c4c3)CC2)c1 | inconclusive: 14.1 µM [inhibitor, partial curve, poor fit] |
| COc1ccc(C(NC(=O)/C=C/c2ccco2)c2ccc(OC)c(OC)c2)cc1OC | inconclusive: 20 µM [inhibitor, partial curve] |
| O=[N+]([O-])c1ccccc1/C=C/C=N/Nc1ccc(S(=O)(=O)Nc2ccc(Cl)cc2)cc1[N+](=O)[O-] | inconclusive: 8.91 µM [inhibitor, partial curve] |
| Cc1nn(-c2ccccc2)c(C)c1/C=N/NC(=O)c1cc(C(C)(C)C)[nH]n1 | inconclusive: 10 µM [inhibitor, partial curve, poor fit] |
| COc1ccc(CC(=O)Nc2nc(-c3cccc([N+](=O)[O-])c3)cs2)cc1 | inactive |
| Cc1ccc(N2CCN(CC(O)COc3ccc([N+](=O)[O-])cc3)CC2)cc1 (stereo unspecified) | inconclusive: 14.1 µM [inhibitor, partial curve] |
| Cc1ccc2cc(/C=N/NC(=O)c3ccccc3O)c(Cl)nc2c1 | inconclusive: 2.82 µM [inhibitor, full curve] |
| CCc1cccc(C)c1NC(=O)Cn1nc(C)n2cccc2c1=O | inconclusive: 10 µM [activator, partial curve] |
| Cc1ccc(C(=O)O/N=C/C2=C(Cl)c3ccccc3CC2)cc1 | inconclusive: 3.98 µM [inhibitor, partial curve] |

| Compound | Potency |
| --- | --- |
| COC(=O)c1cc2oc(C)cc2n1CC(=O)Nc1ccc(C(C)C)cc1 | inconclusive: 22.4 µM [inhibitor, partial curve, poor fit] |
| CCOc1cccc2sc(NN)nc12 | active: 20 µM |
| Cc1ccc(CNCc2ccccc2Cl)s1 | inactive |
| CCOC(=O)C1=C(C)N(c2ccccc2)C(=O)/C1=C\c1cccs1 | inconclusive: 25.1 µM [inhibitor, single point] |
| Cc1cc(C)c2c(N)c(C(=O)Nc3nccs3)sc2n1 | inconclusive: 14.1 µM [inhibitor, partial curve] |
| COc1ccccc1C(=O)N/N=C/c1cnc2ccccc2n1 | inconclusive: 22.4 µM [inhibitor, single point] |
| CC(C)(C)c1ccc(C(=O)NCCc2csc(-c3ccc(Cl)cc3)n2)cc1 | inactive |
| CCOC(=O)C(C)(C)N(Cc1ccccc1C)S(=O)(=O)c1ccc(Cl)c([N+](=O)[O-])c1 | inconclusive: 6.31 µM [inhibitor, partial curve] |
| COc1ccc(C(=O)N2CCN(C3CCN(Cc4ccccc4)CC3)CC2)cc1OC | inactive |
| S=C(Nc1ccccc1Cl)N1CCC(c2ccccc2)C1 (stereo unspecified) | inconclusive: 31.6 µM [inhibitor, partial curve] |
| Cc1ccccc1CSc1cn(CC(=O)N2CCCCC2)c2ccccc12 | inconclusive: 17.8 µM [inhibitor, single point] |
| CCOC(=O)/C(C#N)=C/c1cc(C)n(-c2ccc(C)cc2)c1C | inconclusive: 12.6 µM [inhibitor, partial curve] |
| CCOc1ccc2cc(S(=O)(=O)N3CCOCC3)ccc2c1 | inactive |
| CC1Cc2ccccc2N1C(=O)CSc1nc2ccc(NC(=O)COc3ccccc3)cc2s1 (stereo unspecified) | inactive |
| Cc1ccc2c(CNCc3ccc(C)o3)c(C(=O)O)n(Cc3ccccc3C)c2c1 | inactive |
| CSc1nnc(C)c(/C=C/Nc2ccc(F)cc2)n1 | inconclusive: 10 µM [inhibitor, partial curve] |
| CCOC(=O)C1CCN(Cc2ccc(O)c3ncccc23)CC1 | inconclusive: 12.6 µM [inhibitor, partial curve] |
| CCN=c1scc(C)n1/N=C/c1ccc(O)c(O)c1O | active: 11.2 µM |
| Cn1c(C(=O)Nc2ccccc2)cc2sccc21 | inconclusive: 2.82 µM [inhibitor, partial curve] |
| O=C(Nc1nc2c(F)cc(F)cc2s1)c1ccccn1 | inconclusive: 12.6 µM [inhibitor, partial curve] |
| COc1ccc(OC)c(C2CC(=O)Nc3c2c(=O)[nH]c2ncnn32)c1 (stereo unspecified) | inactive |
| N#Cc1c(-c2ccccc2)nc(SCC(=O)Nc2ccccc2)[nH]c1=O | inactive |
| Cc1cc(-c2nc3cccnc3s2)ccc1NS(=O)(=O)c1cccs1 | inconclusive: 0.562 µM [inhibitor, full curve, poor fit] |
